# According to the supplement of paper PMC3334620:
# In all, about 33,000 sequences were measured (“E-score (-0.5 to 0.5)”: median about -0.035, highest 2% from about 0.34 on). This is one part of the list.
# Molecular target: T1, Mot3 (UniProt P54785)
# T1 sequence: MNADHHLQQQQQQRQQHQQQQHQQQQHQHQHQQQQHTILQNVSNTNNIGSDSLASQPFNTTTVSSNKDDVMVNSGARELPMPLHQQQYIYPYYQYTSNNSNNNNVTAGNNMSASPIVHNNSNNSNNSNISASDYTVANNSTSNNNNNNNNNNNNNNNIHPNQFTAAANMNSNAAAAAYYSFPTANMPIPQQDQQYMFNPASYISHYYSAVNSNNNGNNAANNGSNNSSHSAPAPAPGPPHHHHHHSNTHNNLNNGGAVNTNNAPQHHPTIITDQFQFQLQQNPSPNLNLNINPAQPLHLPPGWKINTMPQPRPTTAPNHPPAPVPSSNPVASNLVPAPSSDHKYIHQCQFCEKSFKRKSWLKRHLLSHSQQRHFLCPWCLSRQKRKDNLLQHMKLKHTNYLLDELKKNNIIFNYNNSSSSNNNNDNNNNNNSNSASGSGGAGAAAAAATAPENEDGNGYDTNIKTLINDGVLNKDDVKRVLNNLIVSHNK
# Assay: PBM E-score (8-mer binding enrichment) (E-score (-0.5 to 0.5)); higher = stronger / more preferred TF binding; most listed sequences are background and not binding sites
# Conditions: protein concentration: 200 nM; construct: GST-full length
# Outline: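 Yeast transcription factors, full-length or as DNA-binding domains, were expressed with a GST tag using PURExpress in vitro transcription/translation. At about 100-200 nM they were applied to universal all-10-mer Agilent arrays, double-stranded by primer extension on fresh or once-stripped slides. Fluorescent anti-GST detected bound protein, and masliner normalised the scans. E-scores for ungapped eight-base words, pooled with reverse complements, came from the Universal PBM Analysis Suite.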
row,Sequence,PBM E-score
1,ACACATGG,0.144
2,CCCCCTCC,-0.101
3,GTGAGGCA,0.353
4,CTAAGGAA,0.366
5,GGAGAAGA,-0.165
6,TCCCCTCA,0.0167
7,AAGTCCCT,-0.139
8,GCGTTTAC,0.186
9,CGCCGTAA,-0.0859
10,CTTTGCTA,0.163
11,ACCATGTA,0.404
12,ATTTGGTG,-0.0257
13,ATTCCGTA,0.0207
14,ATCACCGG,0.00681
15,CTCGCCAA,-0.0783
16,CCGCATAG,0.00725
17,GCTTAAAC,-0.0858
18,AAACCATT,-0.169
19,GTAATGAA,0.205
20,AGGAGCAG,-0.226
21,CATTACTC,0.0851
22,ATGTGCCC,0.158
23,GAGAACGC,-0.0649
24,CCTGAGTC,-0.301
25,GACCATAA,-0.178

row,Sequence,PBM E-score
1,CGCGTACA,0.201
2,AGTGCGTC,-0.218
3,CGTAGACC,-0.158
4,TAAAGGAA,0.383
5,ATGCGTGA,0.0754
6,ATGCTGTC,-0.101
7,AACCAAGC,0.0446
8,CCGCCGGA,-0.275
9,GCTCACGA,-0.296
10,GATTGTCC,-0.0522
11,ACAATATC,0.0506
12,CGGTCGGA,-0.14
13,CTATGGTA,-0.182
14,ACAGTTAC,0.192
15,AACCACGC,0.0704
16,CGTAAGAA,0.0635
17,CTATTGAC,-0.031
18,ATGCTACA,0.036
19,AAGGTAGC,0.149
20,CCTGCACG,0.186
21,AGTATAGC,-0.00604
22,GATAATCC,-0.18
23,AGAGCTGC,-0.151
24,ATAGGGCG,-0.00539
25,AGCGTTCG,-0.173

row,Sequence,PBM E-score
1,ACAGGTGG,-0.21
2,CGCCCACA,-0.164
3,ATAAGCCA,0.025
4,CGTTTCGC,-0.0267
5,GCAACTAA,0.113
6,CGAACGCG,0.135
7,TCCCTCGA,-0.0649
8,GTCGTCTA,0.0515
9,CAAGAAGC,0.0859
10,AGGCCTCA,-0.247
11,AGTAAACA,0.251
12,CCTTCATA,0.209
13,GCCCCGCC,-0.163
14,CGTCGTGA,-0.157
15,ACTAACGA,0.0569
16,ACCTTTGG,-0.0679
17,GAGTTAGC,0.0386
18,GTGCGCAA,-0.148
19,AGGGGACT,-0.284
20,CGATAGAC,0.0473
21,ATTTTTGG,-0.0367
22,ACTAGTGC,0.0333
23,CACACCCA,0.0643
24,ACACTAAC,0.097
25,GTACTAAA,0.102

row,Sequence,PBM E-score
1,CCTCCTAC,0.0023
2,CCGACGTA,0.0868
3,GTCTCCAA,0.0716
4,CAACGGAG,-0.0789
5,CTTACAGC,0.00061
6,CCACTCAG,-0.178
7,CACCCGGA,0.0216
8,CCCCGGAC,-0.127
9,GGAGGGAC,-0.221
10,CAGGACTG,-0.303
11,CTTACTAC,0.0987
12,ATCGCCCC,-0.184
13,ATATGACC,-0.0291
14,CTTCATGA,-0.061
15,CTCTGTAC,0.0774
16,ATCAGAAT,-0.0439
17,CTACGTTC,0.0468
18,ACGCACCC,0.0344
19,AGCAATCA,-0.148
20,AGCCCGCC,-0.2
21,GAACGCTC,-0.164
22,GAAATACC,-0.0531
23,GAAGCCCC,-0.193
24,ATAGGAAT,-0.00642
25,CAGCGAGC,0.0674

row,Sequence,PBM E-score
1,AGGAGAGG,-0.307
2,AGGCAGGG,0.0595
3,CAGCATGG,0.0764
4,CATACCGC,-0.109
5,CCTTTAGC,0.0736
6,CTGCACGA,0.05
7,AAACGTTT,-0.0348
8,ACCGATCC,-0.281
9,AGCTCGTG,-0.111
10,GCCTCCAC,-0.0632
11,GACACAAC,0.178
12,CCACGGTA,-0.191
13,ACGCGCTG,0.184
14,AATGGGGA,-0.0448
15,GTCACCAA,0.00069
16,TGGGGGAA,-0.39
17,CGAGCCTA,0.206
18,AAGAGTTA,-0.0104
19,AATGGGCG,-0.103
20,AAACAGTA,0.0841
21,GCATATGA,-0.0183
22,ACGTGCTG,0.161
23,AAGCGCGC,0.025
24,GAAACCAA,0.0919
25,CGATACGC,-0.053

row,Sequence,PBM E-score
1,CCTCGATC,-0.274
2,TCCTAGAA,-0.00122
3,ATAGGGCC,-0.191
4,TCCGGGCA,-0.127
5,CCGAGTTC,0.0417
6,ACCCGTCC,-0.19
7,GAGGAGAC,-0.302
8,CTGTGCCC,0.314
9,AGTGTTCA,-0.133
10,ACATTGGG,-0.0882
11,ATCAGTGG,-0.18
12,GTGGGATA,-0.0921
13,CTAACGCC,-0.0647
14,ACCAGGCA,0.446
15,ATTCTACA,0.295
16,AAATTGGG,-0.0123
17,AGAGGGCC,-0.371
18,TACTTAGA,-0.0164
19,AGCCTGTC,0.0838
20,CAAAATGC,0.0533
21,AGTGCACA,-0.0321
22,AATATGGC,-0.0164
23,CCATGAGA,0.0336
24,GCTATGTA,0.341
25,AGGGTTAT,0.121

row,Sequence,PBM E-score
1,TAACCTGA,0.0658
2,AGCATCTG,0.013
3,ATGTTTTA,0.362
4,AGAGAGCC,-0.151
5,CCTTACAG,0.139
6,CCGCAGTC,-0.0333
7,AGCTCTCC,-0.0638
8,CTTTTATA,0.113
9,TACAACCA,0.238
10,ACGAATCC,0.114
11,GTTGCGGA,-0.0682
12,CAGTAACA,0.102
13,CCAAGCCC,-0.0266
14,TTGATCAA,-0.0736
15,ACGGACGA,0.00159
16,ATCTGTTA,0.127
17,CGATCCCA,-0.356
18,AAGAAACT,-0.0283
19,AGGGGGCA,-0.276
20,CCCCCTGA,-0.182
21,ACGAGCAA,-0.11
22,CCTTATCC,-0.171
